The source of these data is the RNAGym collection of RNA variant scans (doi:10.7554/elife.90254).

Read counts are not given, so values of variants with three or more changes are uncertain.

Sequences and labels used below:
B1: LINE1-full (parent)
chain: UACGUAGGUGGUUUUCCCCUGAUAGUGCUAAGGGGGCCUGGAAGUUUGGACUGGGCAGAGCUCAACACAGCGUGGCAAAGUGGCUGUGGCUAGACUGCCUCUCUGGAUUCCUCGUCACUCAGCAGGGCAUCUCUGAGAGAAAUGCC

The variants in the data set derive from B1. Put plainly: self-cleavage, relative activity (ratio to wild type); higher = more cleavage; in vitro, sequencing; the parent is a self-cleaving ribozyme.
With UACGUAGGUGGCUUUCCCCUGAUAGUGCUAAGGGGGCCUGGAGGUUUGGACUGGGCAGAGCUCAACACAGCGUGGCAAAGUGGCUGUGGCCAGACUGCCUCUCUGGAUUCCUCGUCACUCAGCAGGGCUUCUCUGAGAGAAGUGCC, the self-cleavage stood at 1.53.
Take UACGUAGGUGGCUUUCCCCUGAUAGUGCUAAGGGGGCCUGGGAGUUUGGACUGGGCAGAGCUCAACACGGCGUGGCAAAGUGGCUGUAGCUAGACUGCCUCUCUGGAUUCCUCGUCACUCAGCAGGGCAUCUCUGGGAGAAAUGCC: the self-cleavage came out at 0.17.
As for UACGUAGGUGGCUUUCCCCUGAUAGUGCUUAGGGGGCCUGGAAGUUUGGACUGGGCAGAGCUCAACACAGCGUGGCAAGGUGGCUGUGGCUAGACUGCCUCUCUGGAUUCCUCGUCACUCAGCAGGGCAUCUCUGAGAGAAAUGCC, the self-cleavage stood at 1.19.
On to UACGUAGGUGGAUUUCCCCUGAUAGUGCUAAGGGGGCCUGGAAGUUUGGACUGGGCAGAGCCCAACACAGCGUGACAAAGUGGCUGUGGCUAGACUGCCUCUCUGGAUUCCUCGACACUCAGCAGGGCAUCUCUGAGAGAAAUGCC, for which the self-cleavage was determined as 0.1.
With UACGUAGGUGGCUUUCCCCUGCUAGUGCUAAGGAGGCCUGGAAGUUUGGACUGGGCAGAGCUCAACACAGCGUGGCAAAGAGGCUGUGGCUAGACUGCCUCUCUGGAUUCCUCGUCACUCAGCGGGGCAUCUCUGAGAGAGAUGCC, the self-cleavage was 2.09.
Regarding UACGUAGGUGGCUUUCCCCUGAUAGUGCUAGGGGGGCCUGGAAGUUUGGACUGGGCAGAGCUCAACACAGCGUGGCAAAGUGGCCGUGGCUAGACUGCCUCUCUGGAUUCCUCGUCACUCAGCAGGGCAUCUCUGAGAGAAAUGCC, the self-cleavage came out at 1.12.
Consider UACGUAGGUGGAUUUCCCCUGAUAGUGCUAAGGGGGCCUGGAAGUUUGGACUGGGCAGAGCUCAACACAGCGUGGCAAAGUGGCUGCGGCUAGACUGCCUCUCUGGAUUCCUCGUCACUCAGCAGGGCUUCUCUGAGAGAAAUGCC, for which the self-cleavage came out at 0.3.
For the variant UACGUAGGUGGAUUUCCCCUGAUAGUGCUAAGGGGGCCUGGAAGUUUGGACUGGGCAGAGCUCAACACAGCGUGGCAAAGUGGCUGUGGCUAGACUGCCUCUCUGGAAUCCUCGUCACUCAGCAGGGCAUCUCUGGGAGAAAUGCC, the self-cleavage came out at 0.84.
On to UACGUAGGUGGAUUUCCCCUGAUAGUGCUAAGGGGGCCUGGAAGUUUGGACUGGGCAGAGCUCAACACAGCGUGGCAAAGCGGCUGUGGCUAGACUGCCUCUCUGGAAUCCUCGUCACUCAGCAGGGCAUCUCUGAGAGAAAUGCC, for which the self-cleavage was found to be 0.88.
UACGUAGGUGGCUUUCCCCUGAUAGUGCUCAGGGUGCCUGGAAGUUUGGACUGUGCAGAGCUCAACACAGCGUGGCAAAGUGGCUGUGGCUAGACUGCCUCUCUGGAUUCCUCGUCACUCAGCAGGGCAUCUCUGAGAGAAAUGCC: the self-cleavage stood at 1.46.
With UACGUAGGUGGCUUUCCCCUGAUAGUGCUGAGUGGGCCUGGAAGUUUGGACUGGGCAGAGCUCAACACAGCGUGGCAAAGUGGCUGUGGCUAGACUGCCUCUCUGGAUUCCUCGUCACUCAGCAGGGCAUCUCUGAGAGAAAUGCC, the self-cleavage is 0.9.
On to UACGUAGGUGGCUUUCCCCUGUUAGUGCUAAGGGGGCCUGGAAGUUUGGACUGGGCAGAGCUCAACACAGCGUGGCAAAGUGGCUGUGGCUAGACUGCCUCUCUGGAUUCCUCGUCACUCAGCAGGGCUUCUCUGAGAGAAAUGCC, for which the self-cleavage stood at 1.03.
Under UACGUAGGUGGCUUUCCCCUGGUAGUGCUAAGGGGGCCUGGAAGUUUGGACUGGGCAGAGCUCAACACAGCGUGGCAUAGAGGCUGCGGCUAGACUGCCUCUCUGGAUUCCUCGUCACUCAGCAGGGCAUCUCUGAGAGAAAUGCC stands 0.25; under UACGUAGGUGGCUUUCCCCUGAUAGUGCUAAGGGGGCCUGGAGGUUUGGACUGGGCAGAGCUCAACACAGCGUGGCAAAGUGGAUGUGGCUAGACUGCCUCUCUGGAUUCCUCGUCACUCAGCAGGGCACCUCUGAGAGAAAUGCC, 0.23; under UACGUAGGUGGCUUUCCCCUGAUAGUGCUAUGGGGGCCUGGAAGUUUGGACUGGGCAGAGCUCGACACAGCGUGGCAAAGUGGCUGUGGCUAGACUGCCUCUCUGGAUUCCUCGUCACUCAGCAGGGCAUCUCUGAGAGAGAUGCC, 0.82.
UACGUAGGUGGAUUUCCCCUGAUAGUGCUAAGGGGGCCUGGAAGUUUGGACUGGGCAGAGCUCAACACAGCGCGGCAAAGGGGCUGUGGCUAGACUGCCUCUCUGGAUUCCUCGUCACUCAGCAGGGCAUCUCUGAGAGAAAUGCC: the self-cleavage was 2.12.
Under UACGUAGGUGGCUUUCCCCUGAUAGUGCUAAGGGGGCCUGGAGGUUUGGACUGGGCAGAGCCCAACACAGCGUGGCAGAGUGGCUGUGGCUAGACUGCCUCUCUGGAUUCCUCGUCUCUCAGCAGGGCAUCUCUGAGAGAAAUGCC stands 0.
With UACGUAGGUGGAUUUCCCCUGAUAGUGCUAAGGGGGCCUGGAAGUUUGGACUGGGCAGAGCUCAACACAGCGUGGCAAAGUGGCUGUGGCUAGACUGCCUCUCUGGACUCCUCGCCACUCAGCAGGGCAUCUCUGAGAGAAAUGCC the figure was 1.53.
Under UACGUAGGUGGAUUUCCCCUGAUAGUGCUAAGGGGGCCUGGAAGUUUGGACUGGGCAGAGCUCAACACAGCGUGGCAAAGAGGCUGUGGCUAGACCGCCUCUCUGGAAACCUCGUCACCCAGCAGGGCAUCUCUGAGAGAAAUGCC stands 0.31; under UACGUAGGUGGCUUUCCCCUGAUAGUGCUAGGGGGCCCUGGAAGUUUGGGCUGGGCAGAGCUCAACACAGCGUGGCAAAGUGGCUGUGGCUAGACUGCCUCUCUGGAUUCCUCGUCACUCAGCAGGGCAUCUCUGAGAGAAAUGCC, 1.67.
